# Experimental data: the supplement of paper PMC8728848
# This is one part of the list.
# B1: Jacalin (Artocarpus integrifolia) (protein)
# chain: MAYSSLLSLSVLALLFSISSADTRKWFLANGINQNPIGIIEAAVGVSEDLLNLNGMEAKNDEQSGISQTVIVGPWGAKVSTSSNGKAFDDGAFTGIREINLSYNKETAIGDFQVVYDLNGSPYVGQNHKSFITGFTPVKISLDFPSEYIMEVSGYTGNVSGYVVVRSLTFKTNKKTYGPYGVTSGTPFNLPIENGLIVGFKGSIGYWLDYFSMYLSL
# Columns and labels:
# Test in all cases: glycan array binding signal (z-score within array); higher = stronger binding
# Conditions in all cases: glycan notation: IUPAC condensed, linker removed
# [1] = molecular target: Neu5Ac(a2-6)Gal(b1-4)GlcNAc(b1-3)[Neu5Ac(a2-6)Gal(b1-4)GlcNAc(b1-6)]GalNAc
# Outline: (§1)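 Columns mapping to the same glycan were averaged after glycan names were converted to IUPAC-condensed notation. The data come from 3228 arrays in the Consortium for Functional Glycomics database, limited to those with an available protein sequence. Binding is reported as a within-array Z-score averaged across arrays of one protein sequence and across linkers.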
# [2] = molecular target: Neu5Ac(a2-6)Gal(b1-4)GlcNAc(b1-6)GalNAc
# Outline: as §1
# [3] = molecular target: Neu5Ac(a2-6)Gal(b1-4)GlcNAc(b1-6)[Gal(b1-3)GlcNAc(b1-3)]Gal(b1-4)Glc
# Outline: as §1
# [4] = molecular target: Neu5Ac(a2-6)Gal(b1-4)GlcNAc(b1-6)[Gal(b1-3)]GalNAc
# Outline: as §1
# [5] = molecular target: Neu5Ac(a2-6)Gal(b1-4)GlcNAc6S
# Outline: as §1
# Neu5Ac(a2-6)GalNAc = molecular target: Neu5Ac(a2-6)GalNAc
# Outline: as §1
# [6] = molecular target: Neu5Ac(a2-6)GalNAc(b1-4)GlcNAc
# Outline: as §1
# [7] = molecular target: Neu5Ac(a2-6)GalNAc(b1-4)GlcNAc6S
# Outline: as §1
# [8] = molecular target: Neu5Ac(a2-6)GlcNAc(b1-4)GlcNAc
# Outline: as §1
# [9] = molecular target: Neu5Ac(a2-6)GlcNAc(b1-4)GlcNAc(b1-4)GlcNAc
# Outline: as §1
# Neu5Ac(a2-8)Neu5Ac = molecular target: Neu5Ac(a2-8)Neu5Ac
# Outline: as §1
# [10] = molecular target: Neu5Ac(a2-8)Neu5Ac(a2-3)Gal(b1-3)GalNAc(b1-4)[Neu5Ac(a2-3)]Gal(b1-4)Glc
# Outline: as §1
# [11] = molecular target: Neu5Ac(a2-8)Neu5Ac(a2-3)Gal(b1-3)GalNAc(b1-4)[Neu5Ac(a2-8)Neu5Ac(a2-3)]Gal(b1-4)Glc
# Outline: as §1
# [12] = molecular target: Neu5Ac(a2-8)Neu5Ac(a2-3)Gal(b1-4)Glc
# Outline: as §1
# [13] = molecular target: Neu5Ac(a2-8)Neu5Ac(a2-3)Gal(b1-4)GlcNAc
# Outline: as §1
# [14] = molecular target: Neu5Ac(a2-8)Neu5Ac(a2-3)[Gal(b1-3)GalNAc(b1-4)]Gal(b1-4)Glc
# Outline: as §1
# [15] = molecular target: Neu5Ac(a2-8)Neu5Ac(a2-3)[GalNAc(b1-4)]Gal(b1-4)Glc
# Outline: as §1
# [16] = molecular target: Neu5Ac(a2-8)Neu5Ac(a2-8)Neu5Ac
# Outline: as §1
# [17] = molecular target: Neu5Ac(a2-8)Neu5Ac(a2-8)Neu5Ac(a2-3)Gal(b1-4)Glc
# Outline: as §1
# [18] = molecular target: Neu5Ac(a2-8)Neu5Ac(a2-8)Neu5Ac(a2-3)[Gal(b1-3)GalNAc(b1-4)]Gal(b1-4)Glc
# Outline: as §1
# [19] = molecular target: Neu5Ac(a2-8)Neu5Ac(a2-8)Neu5Ac(a2-3)[GalNAc(b1-4)]Gal(b1-4)Glc
# Outline: as §1
# [20] = molecular target: Neu5Ac(a2-8)Neu5Ac(a2-8)Neu5Ac(a2-8)Neu5Ac(a2-3)[GalNAc(b1-4)]Gal(b1-4)Glc
# Outline: as §1
# [21] = molecular target: Neu5Ac(a2-8)Neu5Gc(a2-3)Gal(b1-4)GlcNAc
# Outline: as §1
# Neu5Ac(b1-6)GalNAc = molecular target: Neu5Ac(b1-6)GalNAc
# Outline: as §1
# [22] = molecular target: Neu5Ac(b2-6)Gal(b1-4)GlcNAc
# Outline: as §1
# Neu5Ac(b2-6)GalNAc = molecular target: Neu5Ac(b2-6)GalNAc
# Outline: as §1
# [23] = molecular target: Neu5Ac9Ac(a2-3)Gal(b1-3)GlcNAc
# Outline: as §1
# [24] = molecular target: Neu5Ac9Ac(a2-3)Gal(b1-4)GlcNAc
# Outline: as §1
# [25] = molecular target: Neu5Ac9Ac(a2-6)Gal(b1-4)GlcNAc
# Outline: as §1
# [26] = molecular target: Neu5Gc(a2-3)Gal(b1-3)GlcNAc
# Outline: as §1
# [27] = molecular target: Neu5Gc(a2-3)Gal(b1-3)[Fuc(a1-4)]GlcNAc
# Outline: as §1
# Neu5Gc(a2-3)Gal(b1-4)Glc = molecular target: Neu5Gc(a2-3)Gal(b1-4)Glc
# Outline: as §1
# [28] = molecular target: Neu5Gc(a2-3)Gal(b1-4)GlcNAc
# Outline: as §1
# [29] = molecular target: Neu5Gc(a2-3)Gal(b1-4)GlcNAc(b1-3)Gal(b1-4)GlcNAc(b1-2)Man(a1-3)[Neu5Gc(a2-3)Gal(b1-4)GlcNAc(b1-3)Gal(b1-4)GlcNAc(b1-2)Man(a1-6)]Man(b1-4)GlcNAc(b1-4)GlcNAc
# Outline: as §1
# [30] = molecular target: Neu5Gc(a2-3)Gal(b1-4)[Fuc(a1-3)]GlcNAc
# Outline: as §1
# [31] = molecular target: Neu5Gc(a2-6)Gal(b1-4)GlcNAc
# Outline: as §1
# Neu5Gc(a2-6)GalNAc = molecular target: Neu5Gc(a2-6)GalNAc
# Outline: as §1
# [32] = molecular target: Neu5Gc(a2-8)Neu5Ac(a2-3)Gal(b1-4)GlcNAc
# Outline: as §1
# [33] = molecular target: Neu5Gc(a2-8)Neu5Gc(a2-3)Gal(b1-4)GlcNAc
# Outline: as §1
# [34] = molecular target: Neu5Gc(a2-8)Neu5Gc(a2-3)Gal(b1-4)GlcNAc(b1-3)Gal(b1-4)GlcNAc
# Outline: as §1
# [35] = molecular target: Neu5Gc(a2-8)Neu5Gc(a2-6)Gal(b1-4)GlcNAc
# Outline: as §1
# [36] = molecular target: Neu5Gc(b2-6)Gal(b1-4)GlcNAc
# Outline: as §1
binder,measurement,setting,value
B1,glycan array binding signal (z-score),[1],-0.221
same,glycan array binding signal (z-score),[2],-0.255
same,glycan array binding signal (z-score),[3],-0.271
same,glycan array binding signal (z-score),[4],-0.273
same,glycan array binding signal (z-score),[5],-0.255
same,glycan array binding signal (z-score),Neu5Ac(a2-6)GalNAc,-0.289
same,glycan array binding signal (z-score),[6],-0.275
same,glycan array binding signal (z-score),[7],-0.265
same,glycan array binding signal (z-score),[8],-0.277
same,glycan array binding signal (z-score),[9],-0.251
same,glycan array binding signal (z-score),Neu5Ac(a2-8)Neu5Ac,-0.271
same,glycan array binding signal (z-score),[10],-0.268
same,glycan array binding signal (z-score),[11],-0.257
same,glycan array binding signal (z-score),[12],-0.286
same,glycan array binding signal (z-score),[13],-0.274
same,glycan array binding signal (z-score),[14],-0.238
same,glycan array binding signal (z-score),[15],-0.293
same,glycan array binding signal (z-score),[16],-0.284
same,glycan array binding signal (z-score),[17],-0.289
same,glycan array binding signal (z-score),[18],-0.237
same,glycan array binding signal (z-score),[19],-0.231
same,glycan array binding signal (z-score),[20],-0.25
same,glycan array binding signal (z-score),[21],-0.269
same,glycan array binding signal (z-score),Neu5Ac(b1-6)GalNAc,-0.342
same,glycan array binding signal (z-score),[22],-0.261
same,glycan array binding signal (z-score),Neu5Ac(b2-6)GalNAc,-0.278
same,glycan array binding signal (z-score),[23],-0.262
same,glycan array binding signal (z-score),[24],-0.223
same,glycan array binding signal (z-score),[25],-0.26
same,glycan array binding signal (z-score),[26],-0.267
same,glycan array binding signal (z-score),[27],-0.257
same,glycan array binding signal (z-score),Neu5Gc(a2-3)Gal(b1-4)Glc,-0.277
same,glycan array binding signal (z-score),[28],-0.274
same,glycan array binding signal (z-score),[29],-0.232
same,glycan array binding signal (z-score),[30],-0.286
same,glycan array binding signal (z-score),[31],-0.247
same,glycan array binding signal (z-score),Neu5Gc(a2-6)GalNAc,-0.263
same,glycan array binding signal (z-score),[32],-0.289
same,glycan array binding signal (z-score),[33],-0.268
same,glycan array binding signal (z-score),[34],-0.276
same,glycan array binding signal (z-score),[35],-0.274
same,glycan array binding signal (z-score),[36],-0.274
